First the molecules themselves.
B1: Caulobacter ParB omega fusion; a variant is named by its letters at X, in order, B8GW30 (parent)
chain: MESVVVGEPGMSEGRRGLGRGLSALLGEVDAAPAQAPGEQLGGSREAPIEILQRNPDQPRRTFREEDLEDLSNSIREKGVLQPILVRPSPDTAGEYQIVAGERAWRAAQRAGLKTVPIMVRELDDLAVLEIGIIENVQRADLNVLEEALSYKVLMEKFERTQENIAQTIGKSXSHVANXMRLLXLPDEVQSYLVSGELTAXHARAIAAAADPVALAKQIIEGGLSVRETEALARKAPNLSAGKSKGGRPPRVKDTDTQALESDLSSVLGLDVSIDHRGSTGTLTITYATLEQLDDLCNRLTRGI

Whole data set: some 81,000 sequences, median “one-hybrid fitness for binding parS DNA” near -0.17, cut for the highest 2% near 0.51. Some of the results follow. Bounds are passed on as bounds.

The test covers variants of B1. As to the kind of experiment: one-hybrid fitness for binding parS DNA (scaled: cognate 1, non-cognate 0); higher = stronger binding. As to conditions: with parS DNA site. The method, boiled down:
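In E. coli USO, a HIS3 reporter with its site placed 19 bp from the promoter was used to select Caulobacter ParB variants randomised at four specificity codons. Growth lasted 48 hours at 37°C on histidine-free M9 containing 0.1 mM IPTG and 5 mM 3-AT. Fitness was taken as the log change in variant-to-wild-type read ratio from Illumina sequencing of pre- and post-selection plasmids, rescaled between the non-cognate and cognate sites.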
TTPI: the “one-hybrid fitness for binding parS DNA” value is ≤ 0.2.
Then VVMV, with ≤ 0.2; and ICHS, with ≤ 0.2.
To YVCS belongs ≤ 0.2.
To GNMW belongs ≤ 0.2.
Regarding HAVY, the “one-hybrid fitness for binding parS DNA” value is ≤ 0.2.
In the case of PVKV, the “one-hybrid fitness for binding parS DNA” value was ≤ 0.2.
Then RFMN, with 0.242; and PIMD, with ≤ 0.2; and CKSM, with ≤ 0.2.
To RGTL belongs ≤ 0.2; to MRCR, ≤ 0.2; to DARF, ≤ 0.2.
Then IMHT, with ≤ 0.2; and DVAT, with ≤ 0.2.
Turning to LRMC, the “one-hybrid fitness for binding parS DNA” value is ≤ 0.2.
Then KSFS, with ≤ 0.2; and IYQC, with ≤ 0.2.
Then HHTI, with ≤ 0.2; and GYDP, with ≤ 0.2.
To QTWF belongs ≤ 0.2; to WPSN, ≤ 0.2; to GELT, ≤ 0.2.
As to WTHT, the “one-hybrid fitness for binding parS DNA” value was ≤ 0.2.
As for MEIR, the “one-hybrid fitness for binding parS DNA” value was ≤ 0.2.
To VFYS belongs ≤ 0.2; to TRGF, ≤ 0.2; to RAPT, 0.434.
Then PRNM, with ≤ 0.2.
Then IATS, with ≤ 0.2; and DTCG, with ≤ 0.2; and WLNS, with ≤ 0.2.
For GYQG, the “one-hybrid fitness for binding parS DNA” value is ≤ 0.2.
In the case of DAAP, the “one-hybrid fitness for binding parS DNA” value was ≤ 0.2.
In the case of CTNC, the “one-hybrid fitness for binding parS DNA” value was ≤ 0.2.
As for LVYS, the “one-hybrid fitness for binding parS DNA” value was ≤ 0.2.
With CMPS, the “one-hybrid fitness for binding parS DNA” value is ≤ 0.2.
Turning to EQST, the “one-hybrid fitness for binding parS DNA” value was ≤ 0.2.
Take HGRG: the “one-hybrid fitness for binding parS DNA” value is ≤ 0.2.
Then NNTT, with ≤ 0.2; and SISI, with ≤ 0.2.
To LLTN belongs ≤ 0.2.
To FACT belongs ≤ 0.2; to MQAE, ≤ 0.2; to QQVM, ≤ 0.2.
Consider YVVN, for which the “one-hybrid fitness for binding parS DNA” value was ≤ 0.2.
To RIVD belongs ≤ 0.2.
To ILHR belongs ≤ 0.2; to KLEI, ≤ 0.2.
Then CMPR, with ≤ 0.2.
As to AENV, the “one-hybrid fitness for binding parS DNA” value was ≤ 0.2.
To IFPN belongs ≤ 0.2; to CRGF, ≤ 0.2.
Then DQNE, with ≤ 0.2.
To VLWT belongs ≤ 0.2; to KYSR, ≤ 0.2; to LSIW, ≤ 0.2.
Consider LTGC, for which the “one-hybrid fitness for binding parS DNA” value was ≤ 0.2.
DIEF: the “one-hybrid fitness for binding parS DNA” value is ≤ 0.2.
To HTPD belongs ≤ 0.2.
To GNET belongs ≤ 0.2; to WTYG, ≤ 0.2; to HVAG, ≤ 0.2.
Then PDPY, with ≤ 0.2.
For LPPA, the “one-hybrid fitness for binding parS DNA” value was ≤ 0.2.
To AIAL belongs ≤ 0.2.
On to SPAH, for which the “one-hybrid fitness for binding parS DNA” value is ≤ 0.2.
To DHYR belongs ≤ 0.2.
To KPSP belongs ≤ 0.2.
To QERD belongs ≤ 0.2; to KEVF, ≤ 0.2.
In the case of MHDR, the “one-hybrid fitness for binding parS DNA” value is ≤ 0.2.
As for TYRA, the “one-hybrid fitness for binding parS DNA” value is ≤ 0.2.
To ANGC belongs ≤ 0.2.
Then EAMG, with ≤ 0.2; and GDHL, with ≤ 0.2.
To EHNE belongs ≤ 0.2.
Turning to FEHR, the “one-hybrid fitness for binding parS DNA” value is ≤ 0.2.
Consider LTGW, for which the “one-hybrid fitness for binding parS DNA” value is ≤ 0.2.
Then FRQY, with ≤ 0.2.
For the variant SWFS, the “one-hybrid fitness for binding parS DNA” value is ≤ 0.2.
To QVSC belongs ≤ 0.2; to AYLS, ≤ 0.2.
Turning to QLWD, the “one-hybrid fitness for binding parS DNA” value was ≤ 0.2.

The values above are taken from a collection of fitness landscapes (doi:10.1016/j.celrep.2020.107928).
